The list shows a part of the results. Sequences were assembled here from the parent chain. Inactive controls read about 0.05.
B1: TEV protease; numbered along this chain (parent)
chain: MGESLFKGPRDYNPISSSICHLTNESDGHTTSLYGIGFGPFIITNKHLFRRNNGTLVVQSLHGVFKVKDTTTLQQHLVDGRDMIIIRMPKDFPPFPQKLKFREPQREERICLVTTNFQTKSMSSMVSDTSCTFPSGDGIFWKHWIQTKDGQCGSPLVSTRDGFIVGIHSASNFTNTNNYFTSVPKNFMELLTNQEAQQWVSGWRLNADSVLWGGHKVFMVKPEEPFQPVKEATQL

Variants of: B1
Experiment: raw area under fraction-flipped curve 0-4 h after induction (AUC4h, not background-subtracted), DNA-recorder readout of cleavage of the substrate (dimensionless); higher = more cleavage of the substrate by the protease variant
Conditions: temperature: 34 °C; time window: 0-4 h after rhamnose induction
Method: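 In vivo DNA recorder in E. coli TOP10(DE3) ΔrhaA at 34 °C. Each TEVp single-site mutant (parent TEVp 0) is paired with a single-site variant of the 7-mer TEVs (canonical ENLYFQ|S). The substrate sits between flexible linkers in a Bxb1-sfGFP-TEVs-SsrA fusion, so cleavage stabilises Bxb1 and speeds flipping of a recombination array, read by NGS. The value is the raw area under the fraction-flipped curve over 0-4 h after rhamnose induction (AUC4h), with ≥20 reads per time point. It is not background-subtracted; inactive controls average about 0.047.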
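Further: Bxb1 expression induced with 0.2% (w/v) L-rhamnose at OD600 near 0.5, cultures sampled hourly, flipped fraction per protease–substrate barcode pair counted by paired-end Illumina sequencing.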

Row | Variant | area with substrate ENLYFQA | area with substrate ENLYFQG | area with substrate ENLYFQH | area with substrate ENLYFQI | area with substrate ENLYFQL | area with substrate ENLYFQM | area with substrate ENLYFQR | area with substrate ENLYFQS | area with substrate ENLYFQT | area with substrate ENLYFQW | area with substrate ENLYFQC | area with substrate ENLYFQN | area with substrate ENLYFQQ | area with substrate ENLYFQY | area with substrate ENLYFQK | area with substrate ENLYFQP | area with substrate ENLYFQV | area with substrate ENLYFQD | area with substrate ENLYFQF | area with substrate ENLYFQE
1 | P184K | 0.0839 | 0.0859 | 0.0766 | 0.0438 | 0.0755 | 0.0678 | 0.0603 | 0.073 | 0.0612 | 0.0645 | – | – | – | – | – | – | – | – | – | –
2 | P184Q | 0.0966 | 0.0659 | – | 0.0508 | 0.0611 | 0.0742 | 0.0479 | 0.0785 | 0.0582 | 0.0591 | 0.101 | 0.0791 | 0.0527 | 0.0538 | – | – | – | – | – | –
3 | N186V | 0.0886 | – | 0.0854 | – | 0.0526 | 0.0787 | 0.0604 | 0.0867 | – | – | – | 0.0619 | – | – | 0.0599 | 0.0739 | 0.063 | – | – | –
4 | F187P | 0.0396 | – | 0.0496 | – | – | – | 0.024 | 0.0586 | 0.0647 | – | 0.0524 | 0.0413 | – | 0.038 | 0.055 | – | 0.0567 | – | – | –
5 | T192R | 0.0934 | 0.0865 | 0.0544 | 0.0557 | 0.0586 | 0.085 | 0.063 | 0.0856 | 0.0647 | 0.0532 | 0.113 | 0.0744 | 0.0867 | 0.0584 | – | 0.063 | 0.0637 | 0.0624 | 0.101 | –
6 | T192S | 0.089 | – | – | 0.0581 | 0.0589 | 0.0754 | 0.0637 | 0.0944 | 0.0683 | 0.0596 | 0.103 | 0.0723 | 0.0679 | 0.0837 | 0.0613 | 0.0629 | – | – | – | –
7 | Q194G | 0.0917 | 0.0984 | 0.0643 | 0.0545 | 0.048 | 0.124 | 0.0633 | 0.103 | – | 0.0669 | 0.127 | 0.0815 | – | – | 0.0348 | 0.0542 | 0.0624 | 0.0791 | 0.0887 | 0.0639
8 | V200F | 0.0639 | – | – | – | – | – | – | 0.069 | 0.0889 | – | 0.0575 | 0.0637 | – | 0.073 | – | – | 0.0678 | 0.0603 | – | –
9 | R204I | 0.0789 | 0.0931 | 0.079 | 0.0648 | 0.0735 | 0.0862 | 0.0615 | 0.108 | 0.0613 | 0.0706 | 0.117 | 0.0728 | 0.0986 | 0.0789 | 0.0654 | 0.0514 | 0.0851 | 0.0717 | 0.0656 | –
10 | N206F | 0.11 | – | 0.012 | 0.0639 | 0.0649 | 0.0694 | – | 0.0815 | 0.0618 | 0.059 | – | 0.0617 | – | 0.0926 | 0.0666 | 0.053 | 0.0459 | 0.0888 | 0.0555 | –
11 | A207S | 0.122 | 0.0987 | 0.0888 | 0.0414 | 0.0547 | 0.108 | 0.0631 | 0.109 | 0.0678 | 0.0817 | – | 0.0707 | – | 0.0669 | – | 0.0508 | – | 0.0974 | 0.0804 | 0.0739
12 | D208F | 0.0592 | 0.0665 | 0.0619 | 0.0632 | 0.0588 | 0.0806 | 0.0547 | 0.0707 | 0.0634 | – | 0.0703 | 0.0683 | 0.0648 | 0.0765 | 0.0601 | 0.0375 | 0.0375 | – | – | –

Source: the supplement of paper PMC12217912
